Data as given in PubChem BioAssay AID488969 (Vanderbilt High Throughput Screening Facility, 2010).
Over roughly 110,000 compounds, “z-score” has its median near -0.1; the highest 2% begin near 2. The list shows a part of the results.

Molecular target: Metabotropic glutamate receptor 8 (Rattus norvegicus) (UniProt P70579)
Assay: rat mGluR8 modulators via GIRK flux, primary screen, cell-based, thallium flux, HTS (AID 488969)
Settings: HEK293 rat mGluR8, GIRK (G protein-gated inwardly rectifying potassium channel) thallium flux, FluoZin2; at 10 µM; stronger effect = higher value; submaximal glutamate (EC20) added with thallium

Chain of UniProt P70579 (P70579 whole entry, looked up): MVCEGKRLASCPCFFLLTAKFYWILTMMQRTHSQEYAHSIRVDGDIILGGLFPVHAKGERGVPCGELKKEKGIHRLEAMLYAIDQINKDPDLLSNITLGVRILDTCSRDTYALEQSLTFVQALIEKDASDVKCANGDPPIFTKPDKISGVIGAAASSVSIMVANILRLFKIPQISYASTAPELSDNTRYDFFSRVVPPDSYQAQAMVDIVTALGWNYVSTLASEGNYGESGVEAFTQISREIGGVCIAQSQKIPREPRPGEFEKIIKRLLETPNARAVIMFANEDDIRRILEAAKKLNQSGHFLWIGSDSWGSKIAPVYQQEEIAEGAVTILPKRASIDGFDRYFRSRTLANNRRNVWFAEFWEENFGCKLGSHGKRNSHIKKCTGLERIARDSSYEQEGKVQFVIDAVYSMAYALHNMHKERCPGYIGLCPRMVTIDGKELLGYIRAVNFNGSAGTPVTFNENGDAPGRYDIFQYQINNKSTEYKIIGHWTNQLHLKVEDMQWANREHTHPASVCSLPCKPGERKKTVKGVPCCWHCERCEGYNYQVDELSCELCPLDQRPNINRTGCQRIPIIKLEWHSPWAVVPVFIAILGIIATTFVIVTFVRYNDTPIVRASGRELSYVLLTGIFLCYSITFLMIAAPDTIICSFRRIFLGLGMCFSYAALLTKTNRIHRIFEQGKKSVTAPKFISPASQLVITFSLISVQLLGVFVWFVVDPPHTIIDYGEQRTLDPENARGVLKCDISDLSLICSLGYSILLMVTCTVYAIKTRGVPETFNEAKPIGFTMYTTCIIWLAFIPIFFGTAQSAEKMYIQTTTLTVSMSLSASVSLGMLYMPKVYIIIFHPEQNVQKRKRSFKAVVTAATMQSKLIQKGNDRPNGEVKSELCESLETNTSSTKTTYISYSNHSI

Compared with `CC1=C(C(=O)OC(C)C)C(c2ccccn2)n2ncnc2N1` (stereo not drawn), `COc1cccc(/C(O)=C2/C(=O)C(=O)N(CCN(C)C)C2c2ccccn2)c1` (stereo not drawn) is higher in z-score: -0.373 for the first, -0.249 for the second.

Going from `CCOC(=O)Nc1nc(C)c(C(=O)c2ccc(Cl)cc2)s1` to `CCOC(=O)CSC1=C(C#N)C(=O)NC(c2ccc(OC)cc2)S1` (stereo not drawn), the z-score rises from -0.13 to 0.083.

First: COc1ccc(-n2c(=S)[nH]c3cc(C(=O)Nc4cccc(C)c4)ccc3c2=O)cc1
Second: COc1ccc(-n2c(NC(=O)c3ccc(Br)o3)c(C#N)c3nc4ccccc4nc32)cc1
The z-score of the first is higher: -0.179 for the first, -0.207 for the second.

First: Cc1cc2c3c(c1)C1(SCC(=O)N1c1ccc(F)cc1)C(=O)N3C(C)(C)CC2C (stereo not drawn)
Second: Cc1cccc(N2CCN(C(=O)c3csc4ccccc34)CC2C)c1 (stereo not drawn)
The z-score of the first is higher: 0.792 for the first, -0.19 for the second.

Going from `COc1cc(=O)[nH]c(SCc2c(F)c(F)c(F)c(F)c2F)n1` to `Nc1cc(=O)[nH]c(SCc2cccc(Cl)c2)n1`, the z-score falls from 0.0446 to -0.406.

Going from `CCCC(=O)Nc1ccc2c(c1)C(=O)N(CCC(=O)O)C2=O` to `CCn1c2ccccc2c2cc(NC(=O)CCCN3C(=O)CCC3=O)ccc21`, the z-score rises from -0.0953 to -0.0727.

Going from `CCCc1[nH]nc2c1C(c1ccc(OC)cc1OC)C(C#N)=C(N)O2` (stereo not drawn) to `COc1ccc(OC)c(NC(=O)c2[nH]c(C)c(C(C)=O)c2C)c1`, the z-score rises from -1.19 to 0.219.

Going from `COCCCNCCCCOc1c(Cl)cc(C)cc1Br` to `CCOc1cc(C(=O)NCC(C)CN(C)C)cc(OCC)c1OCC` (stereo not drawn), the z-score falls from 0.275 to 0.122.

Going from `O=C(COc1ccc(Cl)cc1)NNC(=O)c1ccccn1` to `O=C(O)CCc1ccc(-c2ccc(Cl)cc2)o1`, the z-score falls from 1.58 to -0.193.

Compared with `COC(=O)c1ccc(Cc2ccc(C(=O)OC)o2)o1`, `Cc1ccc(Cc2cnc(NC(=O)c3ccco3)s2)cc1` is lower in z-score: 0.0151 for the first, -0.555 for the second.

Going from `Clc1ccc(Cn2ccc(-c3ccc4c(c3)OCO4)n2)cc1Cl` to `Clc1ccccc1-c1nc2nc3ccccc3nc2n1-c1ccc2c(c1)OCO2`, the z-score falls from 0.0456 to -0.429.

First: O=S(=O)(c1ccc(S(=O)(=O)N(Cc2ccccc2)Cc2ccco2)cc1)N1CCCC1
Second: O=C(Nc1nnc(-c2ccccc2Cl)s1)C1CCN(S(=O)(=O)c2ccc(Cl)cc2)CC1
The z-score of the first is higher: -0.0707 for the first, -0.105 for the second.

First: CO/N=C/NC(=O)c1c(OC)ccnc1Oc1cccc(C(F)(F)F)c1
Second: NC(=O)c1cccnc1Nc1cccc(F)c1
The z-score of the first is higher: 0.0176 for the first, -0.19 for the second.

First: Cc1ccccc1CS(=O)(=O)c1cnc2ccccc2n1
Second: Cc1ccc(C(=O)O)cc1NC(=S)NC(=O)Cc1ccccc1
The z-score of the first is lower: -0.131 for the first, 0.287 for the second.

Compared with `COCCn1c(SCC(=O)N2CCCc3ccccc32)nc2ccccc2c1=O`, `Cn1c(=O)[nH]c(=O)c2c1nc(N1CCc3ccccc3C1)n2CCSc1nc2ccccc2s1` is higher in z-score: -0.842 for the first, -0.187 for the second.

First: CCC(Oc1ccccc1)C(=O)Nc1nnc(C)s1 (stereo not drawn)
Second: CCCc1nnc(NC(=O)CC(=O)Nc2ccccc2C(=O)O)s1
The z-score of the first is higher: 0.917 for the first, 0.243 for the second.

Compared with `Cc1ccc(OCCNC(=O)C2CC(=O)N(c3ccc(C)cc3)C2)cc1` (stereo not drawn), `Cc1ccc(C2(C)NC(=O)N(CC(=O)NC(=O)NC3CCCC3)C2=O)cc1` (stereo not drawn) is lower in z-score: -0.0323 for the first, -0.423 for the second.

First: Nc1nncn1C(=O)c1ccccc1Cl
Second: C=C(C)CSCc1nc2ccccc2[nH]1
The z-score of the first is lower: -0.069 for the first, 1.21 for the second.

Going from `COc1cc(/C=C(\C#N)c2nc3ccccc3[nH]2)cc(Br)c1OCc1ccc(F)cc1` to `COc1ccc2c(c1)c(=O)cc(-c1ccccc1)n2C`, the z-score rises from -0.315 to -0.0758.

Compared with `O=C(CCC1CCCC1)NCc1cccs1`, `COc1nc(OC)nc(N2CCC(C(=O)NCc3cccs3)CC2)n1` is lower in z-score: 0.00205 for the first, -1.94 for the second.

First: O=C(O)c1ccc(C(=O)Nc2cccc(NC(=O)C3CCCO3)c2)cc1 (stereo not drawn)
Second: Cc1c(NC(=S)NC(=O)Cc2ccccc2)cccc1C(=O)O
The z-score of the first is higher: 0.229 for the first, 0.11 for the second.

Going from `Cn1cc(Cl)c(C(=O)NC2CCCCCC2)n1` to `CC(=O)NC(=S)Nc1sc2c(c1C#N)CCCCC2`, the z-score falls from -0.0961 to -0.116.

First: N/C(CN1CCCC1=O)=N\O
Second: CC1CC(OCC(O)CN2CCN(Cc3ccccc3)CC2)CC(C)(C)C1 (stereo not drawn)
The z-score of the first is lower: 0.169 for the first, 0.26 for the second.

Going from `Cc1cc(NS(=O)(=O)c2cccs2)no1` to `CCn1c(SCC(=O)c2ccc(Cl)s2)nnc1-c1cccs1`, the z-score falls from 0.12 to -0.755.

First: COc1ccc(-c2ccc(-c3noc(C(C)C)n3)c(OC)n2)cc1
Second: CC(C)CC(C(=O)Nn1cnnc1)N1C(=O)c2ccccc2C1=O (stereo not drawn)
The z-score of the first is lower: -0.502 for the first, -0.247 for the second.

Going from `CN=C1S/C(=C\c2ccc(Sc3ccc(Cl)cc3)o2)C(=O)N1C` to `Cc1ccc2nc(C)c(C(=O)N/N=C/c3ccccc3[N+](=O)[O-])cc2c1`, the z-score rises from -0.579 to -0.334.

Compared with `c1ccc2c(c1)nc1n2CCN1`, `CC(c1ccccc1)n1cc(C(=O)NCc2cccnc2)nn1` (stereo not drawn) is lower in z-score: -0.158 for the first, -0.351 for the second.

Going from `Cc1cc(C)n(-c2cc(N3CCN(C(=O)c4cccc(Br)c4)CC3)ccc2[N+](=O)[O-])n1` to `Cc1ccc(C2NC(=O)NC(O)(C(F)(F)F)C2C(=O)c2ccccc2)o1` (stereo not drawn), the z-score rises from -0.73 to -0.198.

Going from `CCCNC(=O)/C=C/c1ccc(C(C)C)cc1` to `FC(F)(F)COc1nc(OCC(F)(F)F)nc(N2CCN(c3ccccc3)CC2)n1`, the z-score rises from -0.258 to -0.193.
